According to article PMC4336329 (PLoS ONE, 2015):
About 14,000 (4.5%) of roughly 310,000 compounds showed an effect of 50% or more. The effect is printed as a negative number. This is one part of the list.

The compounds below were run against human ether-à-go-go-related gene (hERG) potassium channel (human, UniProt Q12809) (assay: primary screen, population patch clamp on CHO cells stably expressing hERG).
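Also: peak tail current of the secondary pulse compared with the same well before compound.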

human ether-à-go-go-related gene (hERG) potassium channel, sequence (Q12809 whole entry, looked up): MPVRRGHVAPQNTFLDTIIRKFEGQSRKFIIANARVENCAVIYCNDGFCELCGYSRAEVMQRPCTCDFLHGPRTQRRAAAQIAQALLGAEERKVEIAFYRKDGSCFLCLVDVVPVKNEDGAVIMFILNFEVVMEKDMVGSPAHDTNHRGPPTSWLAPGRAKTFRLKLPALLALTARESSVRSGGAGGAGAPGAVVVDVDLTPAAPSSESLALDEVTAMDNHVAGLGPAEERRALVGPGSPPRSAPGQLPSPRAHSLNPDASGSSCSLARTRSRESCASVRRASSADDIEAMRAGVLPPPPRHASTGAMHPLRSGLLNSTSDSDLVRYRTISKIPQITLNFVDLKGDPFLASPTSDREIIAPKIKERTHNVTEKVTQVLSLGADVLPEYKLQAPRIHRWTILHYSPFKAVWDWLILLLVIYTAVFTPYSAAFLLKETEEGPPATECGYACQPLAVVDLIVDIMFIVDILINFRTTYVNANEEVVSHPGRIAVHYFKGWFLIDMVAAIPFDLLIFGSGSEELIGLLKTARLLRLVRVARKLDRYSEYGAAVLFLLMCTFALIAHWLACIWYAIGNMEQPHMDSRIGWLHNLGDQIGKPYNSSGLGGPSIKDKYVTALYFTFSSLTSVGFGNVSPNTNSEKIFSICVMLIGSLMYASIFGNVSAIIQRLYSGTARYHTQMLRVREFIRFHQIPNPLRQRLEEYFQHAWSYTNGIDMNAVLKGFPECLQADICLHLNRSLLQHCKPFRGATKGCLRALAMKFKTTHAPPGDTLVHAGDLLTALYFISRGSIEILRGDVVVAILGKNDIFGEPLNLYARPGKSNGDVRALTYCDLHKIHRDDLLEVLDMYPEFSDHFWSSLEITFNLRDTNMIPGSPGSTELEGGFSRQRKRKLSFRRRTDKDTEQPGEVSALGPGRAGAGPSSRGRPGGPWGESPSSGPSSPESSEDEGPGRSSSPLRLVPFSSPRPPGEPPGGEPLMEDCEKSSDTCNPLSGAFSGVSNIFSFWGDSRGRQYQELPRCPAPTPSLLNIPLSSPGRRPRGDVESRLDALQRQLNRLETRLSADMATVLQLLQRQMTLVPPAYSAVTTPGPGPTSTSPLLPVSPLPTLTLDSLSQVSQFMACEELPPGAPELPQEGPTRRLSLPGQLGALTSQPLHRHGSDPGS

Q: Which “hERG current change (%, negative = inhibition) at 10uM” value does the source give for `Cc1ccc2c(cnn2C(=O)CCC(=O)NCc2cccc(Cl)c2)c1` here?
A: Its value is 9.24%.

Q: For `O=c1[nH]c2ccccc2nc1-c1c[nH]c2ccccc12`, which “hERG current change (%, negative = inhibition) at 10uM” value is on record?
A: The value was 21.5%.

Q: For `CCOCCCNC(=O)CN1CCN(c2ccc(F)cc2)CC1.O=C(O)C(=O)O`, which “hERG current change (%, negative = inhibition) at 10uM” value is on record?
A: The value was -13.1%.

Q: With `O=C(Cc1ccccc1)NC(Cc1ccc(Cl)cc1)C(=O)O` (centres unmarked) as the compound, how does the “hERG current change (%, negative = inhibition) at 10uM” value read?
A: The value was 8.41%.

Q: With `Cc1nn(CCCNC(=O)C2CCCO2)cc1Br` (centres unmarked) as the compound, how does the “hERG current change (%, negative = inhibition) at 10uM” value read?
A: The value was 15.5%.

Q: How did the “hERG current change (%, negative = inhibition) at 10uM” value turn out when `COC(=O)Cn1c(=NC(=O)c2ccc(OC)cc2)sc2cc(OC)ccc21` was run?
A: The value was 2%.

Q: `COc1cc(Cl)c(C)cc1NC(=O)CNC(C)c1ccccc1OC` (centres unmarked) was tested. Which “hERG current change (%, negative = inhibition) at 10uM” value did it give?
A: Its value is -2.85%.

Q: With `CCOc1ccc(S(=O)(=O)N2CCC(C(=O)N3CCN(Cc4ccccc4)CC3)CC2)cc1` as the compound, how does the “hERG current change (%, negative = inhibition) at 10uM” value read?
A: The value was -22.8%.

Q: Which “hERG current change (%, negative = inhibition) at 10uM” value does the source give for `c1cnc2c(c1)ccc1cccnc12` here?
A: The value was 20.7%.

Q: How did the “hERG current change (%, negative = inhibition) at 10uM” value turn out when `C/C(=N/OCO/N=C(\C)c1ccc(F)cc1F)c1ccc(F)cc1F` was run?
A: The value was 10.1%.

Q: For `CCOc1cc(C2CC(=O)Nc3cc(C)c(C)cc32)ccc1O` (centres unmarked), which “hERG current change (%, negative = inhibition) at 10uM” value is on record?
A: The value was -3.27%.

Q: With `CCN=C1SC(CC(=O)Nc2ccc(C(F)(F)F)cc2)C(=O)N1CC` (centres unmarked) as the compound, how does the “hERG current change (%, negative = inhibition) at 10uM” value read?
A: The value was -11.9%.

Q: `CCN1CCN(C(=O)C(=O)c2cn(CC(=O)N3CCCC3)c3ccccc23)CC1` was tested. Which “hERG current change (%, negative = inhibition) at 10uM” value did it give?
A: Its value is 15.1%.

Q: Which “hERG current change (%, negative = inhibition) at 10uM” value does the source give for `O=C(CCC(=O)OCC(=O)c1ccc(Cl)cc1)NC1CCCCC1` here?
A: The value was -8.6%.

Q: With `CC(=O)OCC(=O)Nc1ccc(Cl)cc1Cl` as the compound, how does the “hERG current change (%, negative = inhibition) at 10uM” value read?
A: Its value is 5.44%.

Q: `COc1cccc(C(=O)NC2CCN(CC(=O)Nc3cccc(C)c3C)CC2)c1` was tested. Which “hERG current change (%, negative = inhibition) at 10uM” value did it give?
A: Its value is 32.2%.

Q: Which “hERG current change (%, negative = inhibition) at 10uM” value does the source give for `O=C(NCCn1ccc2ccccc21)c1ccc2c(c1)OCO2` here?
A: The value was -12.8%.

Q: Which “hERG current change (%, negative = inhibition) at 10uM” value does the source give for `O=c1[nH]c(=O)n(-c2ccc(F)cc2)c(O)c1C=NCCN1CCCCC1` here?
A: Its value is -14.3%.

Q: How did the “hERG current change (%, negative = inhibition) at 10uM” value turn out when `COc1ccc(NC(=O)CN2C(=O)COc3ccc(S(=O)(=O)N4CCCCC4)cc32)c(OC)c1` was run?
A: The value was 4.84%.

Q: Which “hERG current change (%, negative = inhibition) at 10uM” value does the source give for `Cc1cc(C)n2nc(C(=O)NCc3cccc(C(F)(F)F)c3)nc2n1` here?
A: Its value is -11.7%.

Q: Which “hERG current change (%, negative = inhibition) at 10uM” value does the source give for `COc1cccc(C(C)NC(=O)Nc2cccc(C(F)(F)F)c2)c1` (centres unmarked) here?
A: Its value is -6.17%.

Q: How did the “hERG current change (%, negative = inhibition) at 10uM” value turn out when `CCOC(=O)N1CCC(NC(=O)c2cc3c(-c4ccccc4F)nn(C)c3s2)CC1` was run?
A: Its value is 13.5%.

Q: `CC(=O)N1CCC2(CC1)CC(=O)c1cc(Cl)ccc1O2` was tested. Which “hERG current change (%, negative = inhibition) at 10uM” value did it give?
A: Its value is -55.2%.

Q: How did the “hERG current change (%, negative = inhibition) at 10uM” value turn out when `Cc1ccc(NS(=O)(=O)c2c(C(=O)N3CCOCC3)c(C)n(C)c2C)cc1C` was run?
A: Its value is 9.01%.

Q: For `O=C(NC1CCC(O)CC1)c1ccc(-c2ccc(Cl)cc2)o1` (centres unmarked), which “hERG current change (%, negative = inhibition) at 10uM” value is on record?
A: Its value is -21.8%.

Q: How did the “hERG current change (%, negative = inhibition) at 10uM” value turn out when `CSc1ccccc1C(=O)OCC(=O)N1CCN(C(C)=O)CC1` was run?
A: Its value is 17.4%.

Q: For `CCN1c2ccccc2-c2nc3ccccc3n2C1c1ccncc1` (centres unmarked), which “hERG current change (%, negative = inhibition) at 10uM” value is on record?
A: Its value is -5.74%.

Q: Which “hERG current change (%, negative = inhibition) at 10uM” value does the source give for `CC(=O)Nc1sc(C)c(C)c1C(=O)OCC(=O)NCc1ccc(F)cc1` here?
A: Its value is 10.9%.

Q: `COc1ccc(CCNC(=O)C2CCN(S(=O)(=O)c3ccc4c(c3)oc(=O)n4C)CC2)cc1OC` was tested. Which “hERG current change (%, negative = inhibition) at 10uM” value did it give?
A: The value was 13.8%.

Q: How did the “hERG current change (%, negative = inhibition) at 10uM” value turn out when `O=c1[nH]c2ccc(S(=O)(=O)NCc3ccccn3)cc2s1` was run?
A: The value was 14.9%.

Q: How did the “hERG current change (%, negative = inhibition) at 10uM” value turn out when `N#Cc1ccc(CN2CCN(CC(=O)NCCc3ccc(Cl)cc3Cl)CC2)cc1` was run?
A: The value was -68.8%.

Q: For `CN(C(=S)NC1=CCS(=O)(=O)C1)C1CCCCC1`, which “hERG current change (%, negative = inhibition) at 10uM” value is on record?
A: The value was 0.959%.

Q: `O=C([O-])CCCNC(=O)C(c1ccccc1)c1ccccc1.[Li+]` was tested. Which “hERG current change (%, negative = inhibition) at 10uM” value did it give?
A: The value was -22.1%.

Q: For `Cc1c(OC(C)C(=O)O)ccc2c(-c3ccccc3)cc(=O)oc12` (centres unmarked), which “hERG current change (%, negative = inhibition) at 10uM” value is on record?
A: The value was 18.3%.

Q: How did the “hERG current change (%, negative = inhibition) at 10uM” value turn out when `O=C(COc1ccc(Cl)cc1)N(Cc1cccs1)C1CCS(=O)(=O)C1` (centres unmarked) was run?
A: The value was -48.1%.

Q: With `COc1ccccc1-c1cc2nc(C)c(CCC(=O)NCc3ccc(F)cc3)c(C)n2n1` as the compound, how does the “hERG current change (%, negative = inhibition) at 10uM” value read?
A: The value was -49.7%.

Q: With `COc1cccc(C(=O)NCC(=O)N2CCC3(CC2)NCCc2[nH]cnc23)c1OC` as the compound, how does the “hERG current change (%, negative = inhibition) at 10uM” value read?
A: Its value is 19%.

Q: For `COc1ccc2c(-c3cccnc3)cc(=O)[nH]c2c1`, which “hERG current change (%, negative = inhibition) at 10uM” value is on record?
A: Its value is -3.74%.

Q: `COC(=O)C1=C(c2ccc(OC(F)(F)F)cc2)C[C@@H]2CC[C@H]1N2C(=O)NCCc1ccccc1` was tested. Which “hERG current change (%, negative = inhibition) at 10uM” value did it give?
A: The value was -23.2%.

Q: `CN(c1ccccc1C(=O)Nc1cccc(C(F)(F)F)c1)S(C)(=O)=O` was tested. Which “hERG current change (%, negative = inhibition) at 10uM” value did it give?
A: The value was -2.04%.

Q: `COc1ccccc1NC(=O)Nc1nc(CC(=O)Nc2cc(F)ccc2F)cs1` was tested. Which “hERG current change (%, negative = inhibition) at 10uM” value did it give?
A: Its value is -2.13%.

Q: `COc1ccc(Cn2c(=O)[nH]c3cc(OC)c(OC)cc3c2=O)cc1` was tested. Which “hERG current change (%, negative = inhibition) at 10uM” value did it give?
A: The value was 7.17%.

Q: For `Cc1nnc(NC(=O)C(C)Sc2nnc(-c3ccco3)n2C(C)C)s1` (centres unmarked), which “hERG current change (%, negative = inhibition) at 10uM” value is on record?
A: Its value is 15.5%.

Q: With `Cc1ccc(C(=O)COC(=O)CCCC(=O)Nc2cc(C(F)(F)F)ccc2Cl)cc1C` as the compound, how does the “hERG current change (%, negative = inhibition) at 10uM” value read?
A: Its value is 24.7%.
